Results from the supplement of paper PMC4604168 (melanoma cell lines).
This is one part of the list. Single values are uncertain, as repeats are few or missing.

System: IST-MEL1
Test: cell count relative to DMSO control; melanoma cells; higher = more viable cells
Details: library dose: standard library concentration; 72 h; first compound 2 µM
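Note: cells treated in 1,536-well plates, then fixed and DAPI-stained, with nuclei counted from automated high-throughput microscope images.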

Compound | cell count [%]
C[C@@H](N)c1ccc(C(=O)Nc2ccnc3[nH]ccc23)cc1 + CO[C@@H]1[C@H](N(C)C(=O)c2ccccc2)C[C@H]2O[C@]1(C)n1c3ccccc3c3c4c(c5c6ccccc6n2c5c31)C(=O)NC4 [Midostaurin] (partner dose 0.4 µM) | 55.5
Cn1sc(=O)n(Cc2ccccc2)c1=O + Nc1cccc2c1CN(C1CCC(=O)NC1=O)C2=O [lenalidomide] (partner dose 5 µM) | 100
Cn1sc(=O)n(Cc2ccccc2)c1=O + COc1cc2c(Oc3ccc4[nH]c(C)cc4c3F)ncnc2cc1OCCCN1CCCC1 [cediranib] (partner dose 2 µM) | 111
C[C@@H](N)c1ccc(C(=O)Nc2ccnc3[nH]ccc23)cc1 + Cn1sc(=O)n(Cc2ccccc2)c1=O [TDZD-8] (partner dose 2 µM) | 107
C[C@@H](N)c1ccc(C(=O)Nc2ccnc3[nH]ccc23)cc1 + CC(C)C[C@H](NC(=O)[C@H](Cc1ccccc1)NC(=O)c1cnccn1)B(O)O [Bortezomib] (partner dose 0.005 µM) | 8.25
CCCCCCCCCCCCCCCCCCOP(=O)([O-])OC1CC[N+](C)(C)CC1 [Perifosine] + C#Cc1cccc(Nc2ncnc3cc(OCCOC)c(OCCOC)cc23)c1 [erlotinib] (partner dose 4 µM) | 93.4
Cn1sc(=O)n(Cc2ccccc2)c1=O + CNC(=O)c1cc(Oc2ccc(NC(=O)Nc3ccc(Cl)c(C(F)(F)F)c3)cc2)ccn1 [sorafenib] (partner dose 2 µM) | 98.9
CCCCCCCCCCCCCCCCCCOP(=O)([O-])OC1CC[N+](C)(C)CC1 [Perifosine] + C[C@]1(c2nc3c(C(N)=O)cccc3[nH]2)CCCN1 [Veliparib] (partner dose 7 µM) | 100
Cn1sc(=O)n(Cc2ccccc2)c1=O + Cc1cc(Nc2cc(N3CCN(C)CC3)nc(/C=C/c3ccccc3)n2)n[nH]1 [ENMD2076] (partner dose 0.2 µM) | 94.2
CCCCCCCCCCCCCCCCCCOP(=O)([O-])OC1CC[N+](C)(C)CC1 [Perifosine] + COc1ccc(C2=N[C@@H](c3ccc(Cl)cc3)[C@@H](c3ccc(Cl)cc3)N2C(=O)N2CCNC(=O)C2)c(OC(C)C)c1 [Nutlin-3] (partner dose 0.5 µM) | 105
Cn1sc(=O)n(Cc2ccccc2)c1=O + Cn1c(=O)n(-c2ccc(C(C)(C)C#N)cc2)c2c3cc(-c4cnc5ccccc5c4)ccc3ncc21 [NVP-BEZ235] (partner dose 0.02 µM) | 70.5
C[C@@H](N)c1ccc(C(=O)Nc2ccnc3[nH]ccc23)cc1 + Nc1nc(F)nc2c1ncn2[C@@H]1O[C@H](CO)[C@@H](O)[C@@H]1O [fludarabine] (partner dose 1 µM) | 65.1
C[C@@H](N)c1ccc(C(=O)Nc2ccnc3[nH]ccc23)cc1 + O=C(Nc1cccc(Cl)c1)Nc1ncc(CCNc2ncnc3ccsc23)s1 [SNS314] (partner dose 0.004 µM) | 54.4
Cn1sc(=O)n(Cc2ccccc2)c1=O + O=C(O)c1ccc2c(c1)nc(Nc1cccc(Cl)c1)c1ccncc12 [CX4945] (partner dose 2 µM) | 90.9
Cn1sc(=O)n(Cc2ccccc2)c1=O + COc1ccc(Cl)c(Nc2nc3ccccc3nc2NS(=O)(=O)c2cccc(NC(=O)C(C)(C)N)c2)c1 [XL147] (partner dose 4 µM) | 70.8
CCCCCCCCCCCCCCCCCCOP(=O)([O-])OC1CC[N+](C)(C)CC1 [Perifosine] + Cn1nnc2c(C(N)=O)ncn2c1=O [temozolomide] (partner dose 10 µM) | 83.3
CCCCCCCCCCCCCCCCCCOP(=O)([O-])OC1CC[N+](C)(C)CC1 [Perifosine] + Clc1ccc(Nc2nnc(Cc3ccncc3)c3ccccc23)cc1 [vatalanib] (partner dose 10 µM) | 81.5
C[C@@H](N)c1ccc(C(=O)Nc2ccnc3[nH]ccc23)cc1 + COc1cc(Nc2ncc(F)c(Nc3ccc4c(n3)NC(=O)C(C)(C)O4)n2)cc(OC)c1OC [Tamatinib] (partner dose 2 µM) | 43.4
C[C@@H](N)c1ccc(C(=O)Nc2ccnc3[nH]ccc23)cc1 + COc1cc2c(Oc3ccc4[nH]c(C)cc4c3F)ncnc2cc1OCCCN1CCCC1 [cediranib] (partner dose 2 µM) | 103
